The values below come from publication PMC5862564.

Results are given in words; binding and its absence hold for the method and conditions named. In cells and extracts the contact can be indirect. Some entries that bind do so weakly or less than the wild type.

The target in this experiment is SKAP2N2 (SRC Kinase Adaptor Phosphoprotein 2 with Gaussia princeps luciferase fragment 2 at its N-terminal end) (human) (UniProt O75563). In words: split reporter; Gaussia princeps luciferase complementation assay (GPCA) in HEK293T cells; SKAP2N2 or its mutants with N1-fused partners; cells non-stimulated or activated with 5 µM A23187 for 2 h 15 min; normalized luminescence ratio (NLR) above the threshold of the negative controls.

B1: FYB P370A mutant (protein, UniProt O15117-3 1-839)
chain: MDGKADVKSLMAKYNTGGNPTEDVSVNSRPFRVTGPNSSSGIQARKNLFNNQGNASPPAGPSNVPKFGSPKPPVAVKPSSEEKPDKEPKPPFLKPTGAGQRFGTPASLTTRDPEAKVGFLKPVGPKPINLPKEDSKPTFPWPPGNKPSLHSVNQDHDLKPLGPKSGPTPPTSENEQKQAFPKLTGVKGKFMSASQDLEPKPLFPKPAFGQKPPLSTENSHEDESPMKNVSSSKGSPAPLGVRSKSGPLKPAREDSENKDHAGEISSLPFPGVVLKPAASRGGPGLSKNGEEKKEDRKIDAAKNTFQSKINQEELASGTPPARFPKAPSKLTVGGPWGQSQEKEKGDKNSATPKQKPLPPLFTLGPPPPKANRPPNVDLTKFHKTSSGNSTSKGQTSYSTTSLPPPPPSHPASQPPLPASHPSQPPVPSLPPRNIKPPFDLKSPVNEDNQDGVTHSDGAGNLDEEQDSEGETYEDIEASKEREKKREKEEKKRLELEKKEQKEKEKKEQEIKKKFKLTGPIQVIHLAKACCDVKGGKNELSFKQGEQIEIIRITDNPEGKWLGRTARGSYGYIKTTAVEIDYDSLKLKKDSLGAPSRPIEDDQEVYDDVAEQDDISSHSQSGSGGIFPPPPDDDIYDGIEEEDADDGSTLQVQEKSNTWSWGILKMLKGKDDRKKSIREKPKVSDSDNNEGSSFPAPPKQLDMGDEVYDDVDTSDFPVSSAEMSQGTNVGKAKTEEKDLKKLKKQEKEEKDFRKKFKYDGEIRVLYSTKVTTSITSKKWGTRDLQVKPGESLEVIQTTDDTKVLCRNEEGKYGYVLRSYLADNDGEIYDDIADGCIYDND
Regarding B1, the binding entry was “binds”.

B2: FAM102A P149L mutant (protein, UniProt Q5T9C2-3 1-242)
chain: MFLLSGDPCFKTPPSTAKSISIPGQDSSLQLTCKGGGTSSGGSSTNSLTGSRPPKARPTILSSGLPEEPDQNLSSPEEVFHSGHSRNSSYASQQSKISGYSTEHSRSSSLSDLTHRRNTSTSSSASGGLGMTVEGPEGSEREHRPPEKLPRPPRPLHLSDRSFRRKKDSVESHPTWVDDTRIDADAIVEKIVQSQDFTDGSNTEDSNLRLFVSRDGSATLSGIQLATRVSSGVYEPVVIESH
As for B2, the binding result was “binds”.
